# In the supplement of paper PMC4967469:
# A lower IC50 marks a more sensitive line; fits outside the tested doses are given as limits. For AUC the same curve is integrated over the 256-fold range of doses and scaled to a fraction; the more sensitive the line, the further below 1.
# Compound: CC[C@H](Nc1ncnc2[nH]cnc12)c1nc2cccc(F)c2c(=O)n1-c1ccccc1 [CAL-101]
# Assay: Viability of human cancer cell lines after 72 h of drug (GDSC screen)
# Description: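 Human cancer cell lines in 384-well plates, medium with 10% serum, drug for 72 h over a 256-fold dose range (nine 2-fold or five 4-fold steps up to the top dose). Adherent lines were fixed and stained with the nucleic acid dye Syto60, suspension lines read with resazurin; signal relative to control wells, capped at 0 and 100%. One two-parameter sigmoid per drug and line, fitted in a mixed model over all curves with the slope shared within a line.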
cell line,measurement,value
"ALL-PO (lymphoblastic leukaemia, suspension, top dose 20 µM)",AUC,0.803
same,IC50,10.6 µM
"ALL-SIL (T-cell leukaemia, suspension, top dose 20 µM)",AUC,0.85
same,IC50,12.1 µM
"AM-38 (glioma, semi-adherent, top dose 20 µM)",AUC,0.937
same,IC50,> 20 µM
"AMO-1 (haematopoietic neoplasm, suspension, top dose 20 µM)",AUC,0.97
same,IC50,> 20 µM
"AN3-CA (endometrium, adherent, top dose 20 µM)",AUC,0.961
same,IC50,> 20 µM
"ARH-77 (myeloma, suspension, top dose 20 µM)",AUC,0.677
same,IC50,3.81 µM
"ASH-3 (thyroid, adherent, top dose 20 µM)",AUC,0.987
same,IC50,> 20 µM
"ATN-1 (T-cell lymphoblastic leukaemia, suspension, top dose 20 µM)",AUC,0.868
same,IC50,16.2 µM
"AU565 (breast, adherent, top dose 20 µM)",AUC,0.972
same,IC50,> 20 µM
"AsPC-1 (pancreas, adherent, top dose 20 µM)",AUC,0.919
same,IC50,> 20 µM
"BB30-HNC (head and neck, adherent, top dose 20 µM)",AUC,0.946
same,IC50,> 20 µM
"BB49-HNC (head and neck, adherent, top dose 20 µM)",AUC,0.951
same,IC50,> 20 µM
"BB65-RCC (kidney, adherent, top dose 20 µM)",AUC,0.907
same,IC50,> 20 µM
"BC-1 (B-cell lymphoma, suspension, top dose 20 µM)",AUC,0.924
same,IC50,> 20 µM
"BC-3 (B-cell lymphoma, suspension, top dose 20 µM)",AUC,0.941
same,IC50,> 20 µM
"BCPAP (thyroid, adherent, top dose 20 µM)",AUC,0.959
same,IC50,> 20 µM
"BE2-M17 (neuroblastoma, adherent, top dose 20 µM)",AUC,0.979
same,IC50,> 20 µM
"BE-13 (lymphoblastic leukaemia, suspension, top dose 20 µM)",AUC,0.952
same,IC50,> 20 µM
"BEN (non-small cell lung carcinoma, adherent, top dose 20 µM)",AUC,0.978
same,IC50,> 20 µM
"BFTC-905 (bladder, adherent, top dose 20 µM)",AUC,0.968
same,IC50,> 20 µM
"BFTC-909 (kidney, adherent, top dose 20 µM)",AUC,0.987
same,IC50,> 20 µM
"BHT-101 (thyroid, adherent, top dose 20 µM)",AUC,0.953
same,IC50,> 20 µM
"BHY (head and neck, adherent, top dose 20 µM)",AUC,0.946
same,IC50,> 20 µM
"BICR10 (head and neck, adherent, top dose 20 µM)",AUC,0.985
same,IC50,> 20 µM
"BICR22 (head and neck, adherent, top dose 20 µM)",AUC,0.97
same,IC50,> 20 µM
"BICR31 (head and neck, adherent, top dose 20 µM)",AUC,0.952
same,IC50,> 20 µM
"BICR78 (head and neck, adherent, top dose 20 µM)",AUC,0.975
same,IC50,> 20 µM
"BL-41 (Burkitt lymphoma, suspension, top dose 20 µM)",AUC,0.723
same,IC50,4.47 µM
"BPH-1 (prostate, adherent, top dose 20 µM)",AUC,0.757
same,IC50,7.55 µM
"BT-20 (breast, adherent, top dose 20 µM)",AUC,0.98
same,IC50,> 20 µM
"BT-474 (breast, adherent, top dose 20 µM)",AUC,0.933
same,IC50,> 20 µM
"BT-483 (breast, adherent, top dose 20 µM)",AUC,0.926
same,IC50,> 20 µM
"BV-173 (chronic myeloid leukaemia, suspension, top dose 20 µM)",AUC,0.961
same,IC50,> 20 µM
"Becker (glioma, adherent, top dose 20 µM)",AUC,0.866
same,IC50,> 20 µM
"BxPC-3 (pancreas, adherent, top dose 20 µM)",AUC,0.959
same,IC50,> 20 µM
"C2BBe1 (large intestine, adherent, top dose 20 µM)",AUC,0.958
same,IC50,> 20 µM
"C3A (liver, adherent, top dose 20 µM)",AUC,0.986
same,IC50,> 20 µM
"C32 (melanoma, adherent, top dose 20 µM)",AUC,0.987
same,IC50,> 20 µM
"C-4-I (cervix, adherent, top dose 20 µM)",AUC,0.986
same,IC50,> 20 µM
"C-33-A (cervix, adherent, top dose 20 µM)",AUC,0.979
same,IC50,> 20 µM
"CA46 (Burkitt lymphoma, suspension, top dose 20 µM)",AUC,0.872
same,IC50,> 20 µM
"CADO-ES1 (Ewing sarcoma, suspension, top dose 20 µM)",AUC,0.94
same,IC50,> 20 µM
"CAKI-1 (kidney, adherent, top dose 20 µM)",AUC,0.902
same,IC50,> 20 µM
"CAL-12T (non-small cell lung carcinoma, adherent, top dose 20 µM)",AUC,0.924
same,IC50,> 20 µM
"CAL-27 (head and neck, adherent, top dose 20 µM)",AUC,0.949
same,IC50,> 20 µM
"CAL-29 (bladder, adherent, top dose 20 µM)",AUC,0.972
same,IC50,> 20 µM
"CAL-33 (head and neck, adherent, top dose 20 µM)",AUC,0.964
same,IC50,> 20 µM
"CAL-39 (cervix, adherent, top dose 20 µM)",AUC,0.983
same,IC50,> 20 µM
"CAL-51 (breast, adherent, top dose 20 µM)",AUC,0.985
same,IC50,> 20 µM
"CAL-54 (kidney, adherent, top dose 20 µM)",AUC,0.95
same,IC50,> 20 µM
"CAL-62 (thyroid, adherent, top dose 20 µM)",AUC,0.982
same,IC50,> 20 µM
"CAL-72 (osteosarcoma, adherent, top dose 20 µM)",AUC,0.984
same,IC50,> 20 µM
"CAL-78 (chondrosarcoma, adherent, top dose 20 µM)",AUC,0.986
same,IC50,> 20 µM
"CAL-85-1 (breast, adherent, top dose 20 µM)",AUC,0.959
same,IC50,> 20 µM
"CAL-120 (breast, adherent, top dose 20 µM)",AUC,0.903
same,IC50,> 20 µM
"CAL-148 (breast, suspension, top dose 20 µM)",AUC,0.987
same,IC50,> 20 µM
"CAMA-1 (breast, adherent, top dose 20 µM)",AUC,0.966
same,IC50,> 20 µM
"CAPAN-1 (pancreas, adherent, top dose 20 µM)",AUC,0.969
same,IC50,> 20 µM
"CAS-1 (glioma, adherent, top dose 20 µM)",AUC,0.98
same,IC50,> 20 µM
"CCF-STTG1 (glioma, adherent, top dose 20 µM)",AUC,0.98
same,IC50,> 20 µM
"CCK-81 (large intestine, adherent, top dose 20 µM)",AUC,0.94
same,IC50,> 20 µM
"CCRF-CEM (lymphoblastic leukaemia, suspension, top dose 20 µM)",AUC,0.739
same,IC50,5.24 µM
"CESS (acute myeloid leukaemia, suspension, top dose 20 µM)",AUC,0.782
same,IC50,7.11 µM
"CFPAC-1 (pancreas, adherent, top dose 20 µM)",AUC,0.961
same,IC50,> 20 µM
"CGTH-W-1 (thyroid, adherent, top dose 20 µM)",AUC,0.974
same,IC50,> 20 µM
"CHL-1 (melanoma, adherent, top dose 20 µM)",AUC,0.897
same,IC50,> 20 µM
"CHP-134 (neuroblastoma, suspension, top dose 20 µM)",AUC,0.98
same,IC50,> 20 µM
"CHP-212 (neuroblastoma, adherent, top dose 20 µM)",AUC,0.878
same,IC50,17.6 µM
"CHSA0011 (chondrosarcoma, adherent, top dose 20 µM)",AUC,0.961
same,IC50,> 20 µM
"CHSA0108 (chondrosarcoma, adherent, top dose 20 µM)",AUC,0.98
same,IC50,> 20 µM
"CHSA8926 (chondrosarcoma, adherent, top dose 20 µM)",AUC,0.922
same,IC50,> 20 µM
"CL-11 (large intestine, adherent, top dose 20 µM)",AUC,0.985
same,IC50,> 20 µM
"CMK (acute myeloid leukaemia, suspension, top dose 20 µM)",AUC,0.875
same,IC50,14.6 µM
"COLO-205 (large intestine, suspension, top dose 20 µM)",AUC,0.987
same,IC50,> 20 µM
"COLO-320-HSR (large intestine, suspension, top dose 20 µM)",AUC,0.955
same,IC50,> 20 µM
"COLO-668 (small cell lung carcinoma, adherent, top dose 20 µM)",AUC,0.955
same,IC50,> 20 µM
"COLO-678 (large intestine, semi-adherent, top dose 20 µM)",AUC,0.982
same,IC50,> 20 µM
"COLO-679 (melanoma, adherent, top dose 20 µM)",AUC,0.957
same,IC50,> 20 µM
"COLO-680N (oesophagus, adherent, top dose 20 µM)",AUC,0.978
same,IC50,> 20 µM
"COLO-684 (endometrium, suspension, top dose 20 µM)",AUC,0.843
same,IC50,16.8 µM
"COLO-783 (melanoma, adherent, top dose 20 µM)",AUC,0.99
same,IC50,> 20 µM
"COLO-792 (melanoma, adherent, top dose 20 µM)",AUC,0.966
same,IC50,> 20 µM
